Reference: the supplement of paper PMC11417369
± gives the standard deviation of the averaged measurements. Some of the results follow.

These sequences were tested on PfAP2-EXP AP2 domain (GST-tagged) (assay: gcPBM binding intensity (ln(normalized median fluorescence intensity)); higher = stronger DNA binding).
Summary of the method: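 DNA-binding domains from P. falciparum, fused to GST and produced in E. coli, were put on an Agilent 4 × 180k double-stranded probe array for 1 h in 1× PBS holding 1% milk, 0.2 mg/ml BSA, 0.5% salmon testes DNA and 0.03% Triton X-100. Probes were primer-extended, 36 bp long and drawn from intergenic genomic regions, with negative controls included. After Alexa488 anti-GST antibody detection and a 488 nm scan, binding intensity was set as the highest Masliner-normalised natural-log median intensity across replicate spots of either probe orientation.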

Sequence	gcPBM binding intensity (ln)
TATAACAAGTTATAAAGTACAAATGTTGAATTTTAT [XGTACX_site4673]	8.29 ± 0.4
TATAGATACAGATACACACACACACCGACATATATA [CACACA_site5832]	8.8 ± 0.48
GAATGTATATTCATGTATTTATTATTATTATTATTA [XGTACX_negctrl_site156]	8.26 ± 0.092
ATTATTTTACTAAAAGATATTCCTTTTTTTTGTACT [CACACA_negctrl_site998]	8.43 ± 0.38
TATGTATTTATATTAACACACAAAAAAAAAAAAAAA [CACACA_site5070]	8.22 ± 0.46
ATATGGCTAAAAGTTGCACACACACTAATAAAAAAA [CACACA_site9082]	8.68 ± 0.43
ATATGCCTAATAAAATGTACGTTTGTTTTATTTATT [XGTACX_site3833]	8.72 ± 0.57
ATATATATATTTTGGTAGCACCTCCTTTTTTTTTTT	9.48 ± 0.13
GCGAAATATTATTATAGTATACAAATACTTCTATGA [CACACA_negctrl_site197]	8.38 ± 0.33
ACAGTATCTGGTAGCTGTACGAGTCGTAGAGTGCAG [XGTACX_site2015]	8.95 ± 0.28
GGTAAGTACGACTTGACACACATACCCATATATATA [CACACA_site4837]	8.57 ± 0.3
GGTGTTAAAAAATACACACACAAAAAAAAAAAAAAA [CACACA_site138]	8.22 ± 0.57
TTTTTTTAATTTGGTTGTACTTAAAAAAAAAACAGA [XGTACX_site5788]	8.43 ± 0.36
TATATAAATAGACACACACACATATAAATATAAATA [CACACA_site6503]	8.77 ± 0.38
TTCTTCTGTTTTATTACACACCATTTTGTGGATACA [CACACA_site5181]	8.93 ± 0.29
TACCTAGGATTAAAGTGTCCACATAATTTAAATAAT [XGTACX_site6736]	9.02 ± 0.6
TTTTTTATTATATAATTGTATATAAAATTATAATTT [GTGCAC_negctrl_site733]	8.37 ± 0.35
TAACTTGAATGGATATGTACATATATATATATATAT [XGTACX_site5990]	10.1 ± 0.4
TAGATGTATGTACATACACACATATATAAATAAATA [CACACA_site1788]	8.61 ± 0.54
AATAAACATATATACACACACAAAAAAAAAAACATA [CACACA_site424]	8.65 ± 0.5
ATTCATCTATTTTGTAGTACTAAATATATATCTACT [XGTACX_site8790]	8.74 ± 0.28
TATTCTAATATTTATACACACATAACTTTGATAAAT [CACACA_site6418]	8.37 ± 0.46

Sequence	gcPBM binding intensity (ln)
ATTAATTATTGTAATTGTACATTTTATATATATCCA [XGTACX_site2105]	8.62 ± 0.37
TTTCTTGGGAGACATGCATGTACCAGAACAAAATAA [TGCATGCA_site272]	9.55 ± 0.54
TATATATAGCATATTTCACACACACCGAATGAATAT [CACACA_site9182]	8.64 ± 0.36
TTTTTTTTTTTATATACTGGAAATATATTTAATTTA [GTGCAC_negctrl_site250]	8.38 ± 0.33
TTTATTTTTATGGTCACACATATTTTTAAAACTATA [CACACA_site4372]	8.7 ± 0.2
TACAAAATAGTTTACACACACATATATATACATATA [CACACA_site2615]	8.41 ± 0.4
CACCCATAGAAACACACACACGCATAAAAAAAAAAA [CACACA_site1513]	8.62 ± 0.52
TAAAAACAAAAATGCACACATAATAAGCATATGTAT [CACACA_site3469]	8.55 ± 0.32
TTCATAAGAAGGAACTGTACATATTTTTCATTTTTT [XGTACX_site6770]	8.21 ± 0.38
AACAGGTCATAATTTACACACTATATATCTTATTAT [CACACA_site6461]	8.88 ± 0.57
TACAATCTTTCATTATGTACTTAACATTTTTTCTGT [XGTACX_site8752]	8.74 ± 0.34
TTATATGTATATATATGTATATATATATATATATAG [TGCATGCA_negctrl_site461]	8.23 ± 0.092
CGATTTTTTTTTTATTGTACTTGCTCGCATGCAATA [XGTACX_site4727]	9.12 ± 0.13
TGTATACCTTAATATACACACATACAGATATATATA [CACACA_site4860]	8.41 ± 0.29
ATATGCATTTTTATACGTACATATTTCTTTTCGTTA [XGTACX_site1497]	9.22 ± 0.14
TGTTTTATTTAGAAGGTGCACATTAATATTAAATAA	9.67 ± 0.89
ACAAAAGGGGAATACACACACATATATAAATAAATA [CACACA_site7111]	8.73 ± 0.45
CATATTTTTATGAGATGTACAATAAGAAATATGTAA [XGTACX_site2389]	8.66 ± 0.38
GCATAAACGGATAATTAATTATATTATATTATATCA [CACACA_negctrl_site1519]	8.24 ± 0.41
TCGTGAATGATTTAAGTACACACCGGTATTTATTCA [CACACA_site1564]	8.39 ± 0.52
TTATCCTTGTAACAATGTACACATTATTTAATACTT [XGTACX_site1830]	8.64 ± 0.31
TATTGTTGTCTTTACACATGCAACAAAAGAAGAAAA [TGCATGCA_site911]	8.91 ± 0.26

Sequence	gcPBM binding intensity (ln)
ATTTATTTATATATATTATTTGTTTTAATTTACTTA [XGTACX_negctrl_site246]	8.45 ± 0.35
TTTTTTTTTTGATGCACACACCTGAACGAGTTAATA [CACACA_site4329]	8.83 ± 0.37
CATACAGATGGACACACACACACACCCACAGACAAA [CACACA_site4431]	8.64 ± 0.55
CATATCTCTTATTAATGTACATTTTTAAAAGTAAAT [XGTACX_site2847]	8.51 ± 0.36
TTTATATAATGGAAAAGTACTCAGGAAATTTATACA [XGTACX_site3635]	8.65 ± 0.28
CTTTTTTTTATGAACAGTACAGAAATATATATATAC [XGTACX_site5613]	8.73 ± 0.43
CAAGAACAAAAAATATGTACATATAATTATATATAT [XGTACX_site2082]	8.83 ± 0.27
TTAAAATTAAAAATAGGTACACATATGAACAAGGAC [XGTACX_site1180]	9.36 ± 0.38
TTATATGATATATGACGTACATATTAATAACATCTA [XGTACX_site6716]	8.39 ± 0.33
TGTAATATTTTATAAAGTACATTATAATATAATTCA [XGTACX_site2961]	8.09 ± 0.29
CAATCAACAAAACATACACACACATATATATATATA [CACACA_site8979]	10 ± 0.26
AGATTGAAATATAGTTGTACAAATATTTTAAAACAT [XGTACX_site3026]	8.69 ± 0.35
TTTTTTTCTATAATACACCAGAAAAAAAAATTAAAA [TGCATGCA_negctrl_site257]	8.32 ± 0.34
TTGTTCCAATAAAATCGTACAATTAAACAACCAAAC [XGTACX_site5759]	8.96 ± 0.43
ATATATATAAAATAAAGTACCCGTAAAACCTATATG [XGTACX_site6937]	8.8 ± 0.4
AAAAAAAAAAAAAAAAAATAATAAAAAATAAAAAAA [GTGCAC_negctrl_site341]	8.29 ± 0.19
TAATTTATAAATAATTGTACATAGTTTATTTAGATT [XGTACX_site4599]	8.22 ± 0.4
TAATTATAAAAATAAAACAACCAAATTTGTTATATA [CACACA_negctrl_site750]	8.32 ± 0.64
GAAAGGAAAAGTTGAACACACAAAGTAAACTATAAG [CACACA_site3535]	8.88 ± 0.54
GACGACTATATTAATTGTACTCAATTTAAGCATAAT [XGTACX_site2750]	8.44 ± 0.4
TATGTTAATCCTATTTGTACATATAATCGAATTAAA [XGTACX_site7090]	8.26 ± 0.44
GCCATTAATTTATACACACACATTAAAATTTTTTAT [CACACA_site4575]	8.89 ± 0.33

Sequence	gcPBM binding intensity (ln)
TAATGAAGATATATAACACACAAAAGTTATAAATAT [CACACA_site6678]	8.64 ± 0.38
ATATATAATAATATATGTACATAATATTTTTTTTTT [XGTACX_site1941]	8.15 ± 0.49
GCTATAAATACAGACGCACACATATACATACATATA [CACACA_site3329]	8.77 ± 0.26
AAGAATATATAGGACACACATACAATAATAAATATA [CACACA_site4119]	8.97 ± 0.39
TATCCTACATTAACAAGTACAAAGAGATCCTACGTA [XGTACX_site4252]	8.22 ± 0.45
TTTCTCCATATTAAAGTGCATTAATAACAAAAATAA [GTGCAC_site9934]	8.655 ± 0.021
AACGCCACTTCAATGGCACACACCAATTATTTTTCA [CACACA_site1026]	8.41 ± 0.36
AAAAAAAAAAAAAATATACACACTAATATATTTTTT [CACACA_site815]	8.38 ± 0.56
ATATATATATTAATTACACACAAAAAAAAAAAAAAA [CACACA_site1165]	8.86 ± 0.3
TCATTCGAATAAATTGCACACATGACATCCGTTGTA [CACACA_site2587]	8.63 ± 0.3
TATTAATAATATAATAGTACTTTCACTGTAAATTTA [XGTACX_site6419]	8.35 ± 0.45
GTATAGAGAAAAAACTGTACTTTATATAAATATTTA [XGTACX_site3972]	8.34 ± 0.28
TATATACAGATATATACACACATATTTATATTTTAT [CACACA_site7734]	8.32 ± 0.33
ACAGAAAAAAGACACACACACATAATATACATACAT [CACACA_site6991]	8.69 ± 0.54
CTTAGATATAAAAATTGTACATACATATTTTTGACA [XGTACX_site2107]	8.27 ± 0.4
TATATATATATATATACACACACACTAATAAAAAAA [CACACA_site8426]	10.2 ± 0.21
ATTTTTTAAATGAGGCGTACACAAAAATATAATTAC [XGTACX_site7087]	9.11 ± 0.36
TTTTTTTCGTAAAAAAAAATAATTATTAAATGAAGG [TGCATGCA_negctrl_site212]	8.56 ± 0.6
TAAACACCCATATAAACACACATATAAACACCCATA [CACACA_site5382]	8.84 ± 0.47
TTTATTTATTTTTAACGTACGCACACATATAAATAT [XGTACX_site4042]	8.8 ± 0.57
TATTTTTAATAAAAACGTACGGAATACAAAAAAAAT [XGTACX_site3477]	9.07 ± 0.47
TATTATAAAATATACACATGCAAAAACAAAATTTAC [TGCATGCA_site1051]	9 ± 0.35
